In PubChem BioAssay AID1346428 (National Center for Advancing Translational Sciences (NCATS), 2018) one finds activation data, which are given here for 84 compounds.

The whole screen tested about 48,000 compounds, of which about 1,200 (2.5%) were called active. Inconclusive results (about 2%) are left out.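 The calls were made as follows: active = activation of at least 60% and not above a set upper limit (about 1 call in 100 departs from these limits); inconclusive = activation of 40% to 60%, or above that upper limit; inactive = activation under 40%.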 The list shows a part of the results.

Sequence of UniProt O75388 (O75388 whole entry, looked up, the tested form may be a part): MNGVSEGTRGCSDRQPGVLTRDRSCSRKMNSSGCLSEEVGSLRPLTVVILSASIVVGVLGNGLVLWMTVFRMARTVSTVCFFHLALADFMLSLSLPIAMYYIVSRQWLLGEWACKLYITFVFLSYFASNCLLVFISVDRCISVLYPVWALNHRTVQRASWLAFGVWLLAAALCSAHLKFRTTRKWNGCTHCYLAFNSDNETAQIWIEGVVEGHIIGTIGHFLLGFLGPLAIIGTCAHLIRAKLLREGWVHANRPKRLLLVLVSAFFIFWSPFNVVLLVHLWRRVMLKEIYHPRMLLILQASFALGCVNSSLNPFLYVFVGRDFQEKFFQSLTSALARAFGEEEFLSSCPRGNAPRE

In this experiment the target is Probable G-protein coupled receptor 32 (Homo sapiens) (UniProt O75388). The experiment can be described thus: qHTS for Agonists of Human Resolvin D1 Receptor DRV1. Also: 0% is about no effect. The note with it: CHO-K1 GPR32 beta-arrestin PathHunter luminescence, 90 min; at 76.9 µM; hits give high values; zero percent set by DMSO-only wells. In outline:
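Agonism was scored as beta-arrestin recruitment to ProLink-fused GPR32 in stably transfected CHO-K1 cells, giving a chemiluminescent beta-Gal signal; compounds were incubated 90 min at 37 °C.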
A general note: qHTS replaces the single test concentration by a dilution series.
Take `COc1ccc2cc3cc(C(=O)NCCc4ccccc4)sc3nc2c1Cl`: the activation is inactive: 19.6%. With `Cc1ccccc1NC(=O)Cn1c(=O)n(-c2ccc(CC(=O)NCC3CCCO3)cc2)c(=O)c2ccccc21` (centres undefined) the figure was inactive: 5.28%; with `COc1ccc(-c2cc(C(F)(F)F)nc(NCc3ccccc3)n2)cc1`, inactive: -18.6%. The value for `COc1cccc(NC(=O)C(=O)NCC(c2ccc3c(c2)OCO3)N2CCOCC2)c1` (centres undefined) was inactive: -9.66%. With `O=C(Cn1c(=O)n(-c2ccc(Cl)cc2)c(=O)c2sc3ccccc3c21)NC1CCCCC1` the figure was inactive: 8.55%. For the compound `Fc1ccc(C(Nc2ccc(Cl)c(C(F)(F)F)c2)c2nnc(-c3ccccc3)o2)cc1` (centres undefined), the activation was inactive: -20.1%. With `COc1cc(OC)c(NC(=O)CCn2cccn2)cc1Cl` the figure was inactive: -4.78%; with `CN(Cc1ccccc1)C(C(=O)NC1CCCCC1)c1ccc(Cl)cc1` (centres undefined), inactive: -6.64%.

Regarding `CC(C)c1ccc(NC(=O)c2cc3c(=O)oc4ccccc4c3s2)cc1`, the activation is inactive: -6.43%. For the compound `COc1ccccc1NC(=O)c1sc2cccc(Cl)c2c1Cl`, the activation was inactive: -6.65%. The value for `CCOc1ccc(CCNC(=O)c2cc3c(=O)n(C)c4ccccc4c3s2)cc1OCC` was inactive: 5.07%; that for `CCc1ccc(OCC(=O)NCC(c2ccc(Cl)cc2)N2CCOCC2)cc1` (centres undefined) was inactive: -10.6%. With `CCOC(=O)c1ccc2ncc(C(=O)OCC)c(NCCc3ccc(OC)c(OC)c3)c2c1` the figure was inactive: -22.7%; with `CCCC12CN3CC(C)(CN(C1)C3c1ccc(CC)cc1)C2=O` (centres undefined), inactive: -9.47%; with `Cc1cccc(N2CCN(C(c3ccc(F)cc3)c3nnc(-c4ccccc4)o3)CC2)c1C` (centres undefined), inactive: -39.4%. `COc1cccc(N2CCN(C(=O)c3cnc4c(C)cccn4c3=O)CC2)c1`: the activation is inactive: 10.7%. With `O=c1cc2nc(-c3ccccc3)nc(SCc3cccc(Br)c3)n2[nH]1` the figure was inactive: -54.1%; with `CCN1CCN(C(=O)Cn2ncc3c4ccccc4n(Cc4ccccc4F)c3c2=O)CC1`, inactive: -1.24%; with `Cc1cccc(NC(=O)CSc2nc3ccccc3c3nc(CCn4cncc4C)nn23)c1`, inactive: 13.7%. With `CC(C)Oc1ccc(CNC(=O)C2CCN(C(=O)N3CCOc4ccc(Cl)cc43)CC2)cc1` the figure was inactive: -2.6%; with `Cc1ccccc1-c1nc(NC(=O)CSc2ncnc3sc4c(c23)CCCC4)ns1`, inactive: -25.7%. The value for `COc1ccc(N2CCN(C(CNC(=O)C(=O)NCc3ccc(C)cc3)c3cccnc3)CC2)cc1` (centres undefined) was inactive: 0.429%. In the case of `Cc1cccc(N2CCN(S(=O)(=O)c3ccc(F)c(C(=O)Nc4cccc(Cl)c4C)c3)CC2C)c1` (centres undefined), the activation was inactive: -2.03%. As to `CCNC(=O)c1c(NC(=O)c2cc(=O)c3ccc(C)c(C)c3o2)sc2c1CCCC2`, the activation is inactive: 3.97%. As for `Cc1ccc(Cl)cc1N1CCN(C(=O)C(C)n2ncn3cccc3c2=O)CC1` (centres undefined), the activation was inactive: 3.11%. With `CCCCN(CCCC)C(=O)c1cc2c(=O)n3ccccc3nc2s1` the figure was inactive: -16.2%; with `Cc1nn(-c2ccccc2)c2c1cc1c(=O)[nH]c(=O)nc-1n2-c1cccc(C(F)(F)F)c1`, inactive: 1.26%. Take `COc1ccc(Nc2ncnc3c2cnn3C)c(OC)c1`: the activation is inactive: -12.8%. The value for `O=C(NCCSc1c(-c2ccc(Cl)cc2)[nH]c2ccccc12)c1ccc(S(=O)(=O)N2CCOCC2)cc1` was inactive: -8.44%. The value for `O=S(=O)(Nc1ccc(-c2ccc(N3CCCCCC3)nn2)cc1)c1ccc(C(F)(F)F)cc1` was inactive: -6.77%; that for `O=C(CN1CCN(Cc2ccc(F)cc2)C1=O)NCc1ccccc1` was inactive: -2.51%; that for `Cc1ccc2c(c1)-c1onc(C(=O)N3CCN(c4cccc(C)c4C)CC3)c1CO2` was inactive: 10.8%. With `Cc1cc(C(F)(F)F)c2c(N)c(C(=O)Nc3c(Cl)cccc3Cl)sc2n1` the figure was inactive: -18.2%; with `Cc1ccc(-n2nc3c(=O)n(CCCC(=O)NCc4ccc(F)cc4)nc(C)c3c2C)cc1`, inactive: -8.68%. With `Cc1cc(C)c(S(=O)(=O)NCC(c2ccco2)N2CCN(c3ccccc3)CC2)c(C)c1` (centres undefined), the activation is inactive: -41.3%. `COc1cccc(-n2cc(C(=O)Oc3ccc(F)cc3)c3ccccc3c2=O)c1`: the activation was inactive: -24.4%. The value for `Cc1nn2c(=O)cc(COC(=O)c3ccccc3NC(=O)C(C)C)nc2s1` was inactive: -19.5%; that for `COc1cc(C(=O)Nc2cccc(OCc3cc(=O)n4c(C)csc4n3)c2)cc(OC)c1OC` was inactive: -2.1%. For `Cc1noc2ncnc(N3CCCC(C(=O)NCCC(C)C)C3)c12` (centres undefined), the activation was inactive: 25.6%.

Consider `COc1ccc(S(=O)(=O)N2CCC(c3nnc(-c4ccccc4C)o3)CC2)c(OC)c1`, for which the activation is inactive: 15.5%. Turning to `Cc1ccc(S(=O)(=O)c2c(Nc3ccccc3)sc(C(=O)c3ccc4c(c3)OCO4)c2N)cc1`, the activation is inactive: -4.76%. With `Cc1c(Cl)ccc2sc(NC(=O)c3ccc(S(=O)(=O)N4CCCC4)cc3)nc12`, the activation is inactive: 7.84%. With `COc1ccc(-c2nc(SCC(=O)NCC3CCCO3)c(-c3ccc(Cl)cc3)[nH]2)cc1` (centres undefined) the figure was inactive: -14.1%; with `COc1ccc(OC)c(NC(=O)Cn2ccn(-c3ccc(F)cc3)c(=O)c2=O)c1`, inactive: -7.75%; with `O=C(NCc1ccc2c(c1)CCN2C(=O)c1ccncc1)c1ccccc1Br`, inactive: 14.9%. The value for `COc1ccc(C)cc1S(=O)(=O)Nc1cccc(-c2ccc(N3CCCC3)nn2)c1` was inactive: 34.4%. As to `CCCNC(=O)CCn1nc(-c2ccc(C)cc2)c2ccccc2c1=O`, the activation was inactive: -27.4%. The value for `Cc1ccc2ncc(C(=O)Nc3cccc(C(F)(F)F)c3)c(=O)n2c1` was inactive: -6.64%; that for `Cc1cc(C)cc(NC(=O)CN(C)S(=O)(=O)c2ccc3c(c2)CCC(=O)N3)c1` was inactive: 37.3%; that for `Cc1cccc(C(=O)Nc2sc3c(c2C(=O)O)CCCC3)c1` was inactive: 32.5%. With `CC(=O)c1c(C)oc2ccc(N(C(=O)c3ccncc3)S(=O)(=O)c3ccc(F)cc3C)cc12` the figure was inactive: -4.62%; with `COc1ccc(N(CC(=O)N2CCN(c3ccc(F)cc3)CC2)S(=O)(=O)c2c(C)nn(C)c2C)cc1`, inactive: -13%; with `CN1CCc2cc(NC(=O)Nc3cccnc3)ccc21`, inactive: 0.866%. As to `COc1cccc(CNC(=O)c2cccc(NC(=O)c3nsc4ccccc34)c2)c1`, the activation was inactive: -10.5%. With `COc1cc(Cl)c(NC(=O)CN(C)S(=O)(=O)c2ccc3[nH]c4c(c3c2)CCCC4)c(OC)c1` the figure was inactive: 25.8%; with `CCCOc1ccc(CNC(=O)Cn2c(=O)oc3ccccc32)cc1`, inactive: 45.3%; with `COc1ccc(NS(=O)(=O)c2ccc3c(c2)n(C)c(=O)c(=O)n3C)cc1Cl`, inactive: 10.5%. With `Cc1ccc(CNC(=O)c2cnn(-c3ccc(F)cc3F)c2C2CCN(C(=O)OC(C)(C)C)CC2)cc1` the figure was inactive: -25%; with `CCCOc1ccc(C2C(=O)N(C3CCCCC3)CC(=O)N2CCC2=CCCCC2)cc1OC` (centres undefined), inactive: -4.05%; with `COc1cccc(CNC(=O)CC(c2ccc(C)cc2)N2Cc3ccccc3C2=O)c1` (centres undefined), inactive: 15.2%. `CCOC(=O)C(CC)Sc1nnc2[nH]c(=O)cc(C)n12` (centres undefined): the activation is inactive: 4.26%. With `COc1cccc(CNC(=O)CCS(=O)(=O)c2cc3c4c(c2)CCN4C(=O)CC3)c1` the figure was inactive: -1.75%; with `O=C(CSc1n[nH]c(-c2ccccc2)n1)NCCc1ccccc1`, inactive: 1.62%. The value for `COc1cc(-c2nc3cnccn3c2Nc2ccc(C(C)C)cc2)ccc1O` was inactive: 28.8%; that for `CCOC(=O)c1cc2c(=O)n3ccccc3nc2n(CC2CCCO2)c1=NC(=O)c1ccccc1F` (centres undefined) was inactive: 18.6%; that for `COc1ccc(CNC(=O)C(C)n2nc(C)c3sc4ccccc4c3c2=O)cc1OC` (centres undefined) was inactive: -15.9%. The value for `Cc1ccccc1NC(=O)CSc1nnc(-c2cccc(Cl)c2)o1` was inactive: -9%.

As to `COc1ccccc1-c1ccnc2c(-c3ccc(Br)cc3)c(C)nn12`, the activation was inactive: 35.7%. The value for `CCc1ccc(Cn2c(CNS(=O)(=O)c3ccc(Cl)s3)nc3cccnc32)cc1` was inactive: -34.4%; that for `Cc1nn2c(=O)cc(COC(=O)c3ccc(NC(=O)c4ccc(C(C)(C)C)cc4)cc3)nc2s1` was inactive: -11.7%. The value for `Cc1csc2nc(-c3cccc(NC(=O)c4ccccc4F)c3)cn12` was inactive: 17%; that for `COC(=O)c1c(NC(=O)c2c(OC)cccc2OC)sc2c1CCCC2` was inactive: -9.9%.

For `CC1CCCCN1S(=O)(=O)c1ccc2[nH]c(=O)cc(C(=O)NCCc3ccc(Cl)cc3)c2c1` (centres undefined), the activation is inactive: -14.1%. With `CC(C)OCCCNC(=O)CN1C(=O)CSc2ccc(S(=O)(=O)N3CCOCC3)cc21` the figure was inactive: -13.1%; with `COc1cccc(NC(=O)c2oc3ccc(S(=O)(=O)N4CCOCC4)cc3c2C)c1`, inactive: -16.2%; with `CC(=O)c1cccc(Nc2ncnc3c2cnn3-c2cccc(Cl)c2)c1`, inactive: -3.74%. With `COc1cccc(NC(=O)CC2Oc3ccccc3NC2=O)c1` (centres undefined) the figure was inactive: -0.552%. With `C=Cc1ccc(Cn2c(C(=O)OC)cc3sc(C)cc32)cc1` the figure was inactive: -21.6%; with `CC(=O)Nc1c(C(=O)Nc2ccccc2F)oc2ccccc12`, inactive: 15.8%; with `CCc1ccc(Nc2nc3c(S(=O)(=O)c4cccc(Cl)c4)nnn3c3ccsc23)cc1`, inactive: -6.56%. For the compound `CNc1nc(Oc2ccc(=O)[nH]n2)nc(N2CCOCC2)n1`, the activation was inactive: 5.89%.

In the case of `COc1ccc(-n2cc(C(=O)Nc3ccccc3C#N)c3ccccc3c2=O)cc1`, the activation was inactive: -20%.

With `CC(C)(C)c1ccc(S(=O)(=O)N2CCC(c3ccncc3)CC2)cc1`, the activation was inactive: -0.669%.

For `CCOc1ccc(NC(=O)Cn2c(=O)n(Cc3ccccc3)c(=O)c3c4c(sc32)CN(C(C)=O)CC4)cc1`, the activation was inactive: -3.05%.
